Measured values from paper PMC5700166.
The entries are a selection whose mix differs from that of the whole data set. The list includes weakly bound sequences.

Key:
Test in all cases: protein-binding microarray (PBM)
Details in all cases: PBM: ~300 nM protein, 6 mM HEPES pH 7.8, 80 mM KCl, 0.5 mM EDTA, 0.5 mM EGTA, 6% glycerol, 35 ng/ul poly-dIdC, 1% milk, 1 h, room temperature; Ap Aiptasia and Nv Nematostella (sea anemones) / Co Capsaspora / Aq Amphimedon (sponge) / Dm Drosophila / Hu human; RHD is the Rel homology domain; high values mean tight binding; most listed sequences are background and not binding sites; double strand, one strand shown
[1] = molecular target: T1, GST-Ap-NF-kB RHD (UniProt A0A913YAJ5)
T1 sequence: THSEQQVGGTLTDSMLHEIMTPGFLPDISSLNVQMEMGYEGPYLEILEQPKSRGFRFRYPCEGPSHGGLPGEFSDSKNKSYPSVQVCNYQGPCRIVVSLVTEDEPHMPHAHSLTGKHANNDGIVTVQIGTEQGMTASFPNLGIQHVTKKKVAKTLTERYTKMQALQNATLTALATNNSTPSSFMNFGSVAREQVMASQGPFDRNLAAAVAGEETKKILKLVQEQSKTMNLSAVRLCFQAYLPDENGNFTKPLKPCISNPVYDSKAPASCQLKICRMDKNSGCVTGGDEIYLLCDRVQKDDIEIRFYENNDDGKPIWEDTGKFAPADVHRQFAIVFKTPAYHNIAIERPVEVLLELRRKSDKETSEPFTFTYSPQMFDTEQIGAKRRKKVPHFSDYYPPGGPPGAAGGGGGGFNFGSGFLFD

[2] = molecular target: T2, GST-Nv-NF-kB (Cys allele) (UniProt E5G601)
T2 sequence: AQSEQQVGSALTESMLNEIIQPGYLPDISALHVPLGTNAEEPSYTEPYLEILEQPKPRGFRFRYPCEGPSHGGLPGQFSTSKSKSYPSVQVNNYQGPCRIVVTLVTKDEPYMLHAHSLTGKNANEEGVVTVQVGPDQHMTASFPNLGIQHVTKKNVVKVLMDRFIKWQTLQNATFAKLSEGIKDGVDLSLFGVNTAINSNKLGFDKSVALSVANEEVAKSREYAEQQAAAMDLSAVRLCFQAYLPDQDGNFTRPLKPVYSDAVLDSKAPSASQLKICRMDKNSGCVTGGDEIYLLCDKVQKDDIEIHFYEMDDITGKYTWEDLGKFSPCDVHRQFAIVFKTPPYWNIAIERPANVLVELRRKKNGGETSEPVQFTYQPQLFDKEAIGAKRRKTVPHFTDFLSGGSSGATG

[3] = molecular target: T3, GST-Co-NF-kB (UniProt F1ARL5)
T3 sequence: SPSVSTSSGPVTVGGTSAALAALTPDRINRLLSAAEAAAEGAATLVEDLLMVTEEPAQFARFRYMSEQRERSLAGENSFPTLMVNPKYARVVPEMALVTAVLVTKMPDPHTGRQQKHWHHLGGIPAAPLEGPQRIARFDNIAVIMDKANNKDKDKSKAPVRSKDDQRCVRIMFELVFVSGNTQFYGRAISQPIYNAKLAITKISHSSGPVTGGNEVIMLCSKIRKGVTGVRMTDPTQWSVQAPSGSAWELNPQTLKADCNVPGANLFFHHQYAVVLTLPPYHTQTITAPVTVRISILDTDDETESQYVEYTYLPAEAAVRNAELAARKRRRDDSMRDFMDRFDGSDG

[4] = molecular target: T4, GST-Dm-Relish (UniProt Q94527)
T4 sequence: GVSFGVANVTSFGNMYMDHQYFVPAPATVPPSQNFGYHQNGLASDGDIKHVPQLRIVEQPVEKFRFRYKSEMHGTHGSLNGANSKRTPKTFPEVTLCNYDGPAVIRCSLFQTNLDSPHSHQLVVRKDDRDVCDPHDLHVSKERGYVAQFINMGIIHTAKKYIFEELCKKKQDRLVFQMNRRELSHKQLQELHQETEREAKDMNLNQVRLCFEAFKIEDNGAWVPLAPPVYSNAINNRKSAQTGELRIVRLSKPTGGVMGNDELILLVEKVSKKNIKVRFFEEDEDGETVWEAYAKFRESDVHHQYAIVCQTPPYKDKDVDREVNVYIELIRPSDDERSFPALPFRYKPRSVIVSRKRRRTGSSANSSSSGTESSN

[5] = molecular target: T5, GST-Aq-NF-kB (UniProt A9Y5G7)
T5 sequence: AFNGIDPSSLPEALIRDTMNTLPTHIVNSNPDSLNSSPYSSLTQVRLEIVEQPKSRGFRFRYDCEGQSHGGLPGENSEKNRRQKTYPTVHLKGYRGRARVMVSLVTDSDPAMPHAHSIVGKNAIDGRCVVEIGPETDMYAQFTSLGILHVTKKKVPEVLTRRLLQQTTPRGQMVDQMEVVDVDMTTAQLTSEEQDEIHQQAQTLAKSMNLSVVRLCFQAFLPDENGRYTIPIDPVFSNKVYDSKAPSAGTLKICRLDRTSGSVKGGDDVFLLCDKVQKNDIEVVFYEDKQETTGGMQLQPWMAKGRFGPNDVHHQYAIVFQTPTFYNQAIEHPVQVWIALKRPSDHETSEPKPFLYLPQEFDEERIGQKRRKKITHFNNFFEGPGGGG

Row | Sequence | binding signal [1] | binding signal [2] | binding signal [3] | binding signal [4] | binding signal [5]
1 | CCGATTAACATCAAAGATTTGAATGATGTTAATCGGGTCTTGATTCGCTTGACGCTGCTG | -0.429 z-score | -0.0243 z-score | -1.26 z-score | -0.183 z-score | -0.431 z-score
2 | CCGATTAACATCATACTTGACTCTGATGTTAATCGGGTCTTGATTCGCTTGACGCTGCTG | -0.517 z-score | -0.104 z-score | -0.437 z-score | -0.674 z-score | -0.813 z-score
3 | CCGATTAACATCAATGTCTCGAGTGATGTTAATCGGGTCTTGATTCGCTTGACGCTGCTG | -0.991 z-score | -0.144 z-score | -0.521 z-score | -0.0557 z-score | -0.435 z-score
4 | CCGATTAACATCACGTACCTCTTTGATGTTAATCGGGTCTTGATTCGCTTGACGCTGCTG | 0.00484 z-score | 0.15 z-score | 0.323 z-score | 0.393 z-score | -0.181 z-score
5 | CCGATTAACATCAGTTCTGTCAATGATGTTAATCGGGTCTTGATTCGCTTGACGCTGCTG | -0.082 z-score | 0.122 z-score | -0.188 z-score | -0.384 z-score | -0.271 z-score
6 | CCGATTAACATCAGATCACATGATGATGTTAATCGGGTCTTGATTCGCTTGACGCTGCTG | -0.649 z-score | -0.256 z-score | -0.129 z-score | -0.762 z-score | -0.446 z-score
7 | CCGATTAACATCAAAACCTTTTGTGATGTTAATCGGGTCTTGATTCGCTTGACGCTGCTG | -0.731 z-score | -0.499 z-score | 0.163 z-score | 0.423 z-score | -0.158 z-score
8 | CCGATTAACATCACAAGCCGCCTTGATGTTAATCGGGTCTTGATTCGCTTGACGCTGCTG | 0.542 z-score | -0.0381 z-score | -0.562 z-score | -0.486 z-score | -0.439 z-score
9 | CCGATTAACATCATCAGGGTTTGTGATGTTAATCGGGTCTTGATTCGCTTGACGCTGCTG | 0.626 z-score | -0.425 z-score | 0.654 z-score | 0.963 z-score | 0.627 z-score
10 | CCGATTAACATCAGTACATCATGTGATGTTAATCGGGTCTTGATTCGCTTGACGCTGCTG | -0.105 z-score | -0.867 z-score | -0.53 z-score | 0.534 z-score | -0.29 z-score
11 | CCGATTAACATCACGCGCGAATCTGATGTTAATCGGGTCTTGATTCGCTTGACGCTGCTG | 0.24 z-score | -0.666 z-score | -0.778 z-score | -0.268 z-score | -0.384 z-score
12 | CCGATTAACATCACGTTAATTCCTGATGTTAATCGGGTCTTGATTCGCTTGACGCTGCTG | -0.131 z-score | -0.337 z-score | 0.112 z-score | 0.601 z-score | 0.397 z-score
13 | CCGATTAACATCAGCGCCTGTGCTGATGTTAATCGGGTCTTGATTCGCTTGACGCTGCTG | -1.03 z-score | -1.15 z-score | -1.18 z-score | -1.43 z-score | -0.644 z-score
14 | CCGATTAACATCACGCAAATTCCTGATGTTAATCGGGTCTTGATTCGCTTGACGCTGCTG | -0.0374 z-score | 0.0485 z-score | 0.537 z-score | 0.6 z-score | 0.187 z-score
15 | CCGATTAACATCAAGGAAAATACTGATGTTAATCGGGTCTTGATTCGCTTGACGCTGCTG | -0.176 z-score | -0.194 z-score | 0.713 z-score | 1.2 z-score | 0.593 z-score
16 | CCGATTAACATCATCTCGTAGAATGATGTTAATCGGGTCTTGATTCGCTTGACGCTGCTG | -1.48 z-score | -0.129 z-score | -0.796 z-score | -0.536 z-score | -0.373 z-score
17 | CCGATTAACATCAGCTCTGTACATGATGTTAATCGGGTCTTGATTCGCTTGACGCTGCTG | -0.371 z-score | -0.0137 z-score | -0.0141 z-score | 0.0134 z-score | -0.557 z-score
18 | CCGATTAACATCACGGAATATCCTGATGTTAATCGGGTCTTGATTCGCTTGACGCTGCTG | 0.0302 z-score | -0.38 z-score | 0.221 z-score | 0.154 z-score | 1.48 z-score
19 | CCGATTAACATCATTATAACTTATGATGTTAATCGGGTCTTGATTCGCTTGACGCTGCTG | -0.577 z-score | -0.0812 z-score | -0.332 z-score | -0.425 z-score | -0.118 z-score
20 | CCGATTAACATCATTACAACGCTTGATGTTAATCGGGTCTTGATTCGCTTGACGCTGCTG | -0.983 z-score | -0.0474 z-score | -0.756 z-score | 0.178 z-score | -0.353 z-score
21 | CCGATTAACATCACAGGCCCGGCTGATGTTAATCGGGTCTTGATTCGCTTGACGCTGCTG | 0.589 z-score | -0.958 z-score | -0.112 z-score | -0.263 z-score | 0.286 z-score
22 | CCGATTAACATCACGCCACACACTGATGTTAATCGGGTCTTGATTCGCTTGACGCTGCTG | 0.0936 z-score | -0.233 z-score | 0.301 z-score | 0.442 z-score | -0.0614 z-score
23 | CCGATTAACATCAGTGGATGCAATGATGTTAATCGGGTCTTGATTCGCTTGACGCTGCTG | -0.258 z-score | -0.0198 z-score | -0.22 z-score | 0.0218 z-score | -0.169 z-score
24 | CCGATTAACATCAACTGCCGTCGTGATGTTAATCGGGTCTTGATTCGCTTGACGCTGCTG | 0.161 z-score | -0.128 z-score | -0.361 z-score | -0.266 z-score | -0.23 z-score
25 | CCGATTAACATCAACGAATTTCCTGATGTTAATCGGGTCTTGATTCGCTTGACGCTGCTG | 0.0746 z-score | 0.328 z-score | 0.444 z-score | -0.00138 z-score | 0.254 z-score
26 | CCGATTAACATCACCGTTAGGCGTGATGTTAATCGGGTCTTGATTCGCTTGACGCTGCTG | 0.0491 z-score | 0.183 z-score | 0.609 z-score | 0.718 z-score | 0.123 z-score
27 | CCGATTAACATCAATGGATTTTCTGATGTTAATCGGGTCTTGATTCGCTTGACGCTGCTG | 0.305 z-score | -0.761 z-score | -0.0539 z-score | 0.505 z-score | 0.303 z-score
28 | CCGATTAACATCAACCAGACAGTTGATGTTAATCGGGTCTTGATTCGCTTGACGCTGCTG | -0.336 z-score | -0.467 z-score | -0.318 z-score | -0.86 z-score | -0.5 z-score
